Assay results reported in PubChem BioAssay (NCI).
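Values below derive from 48-hour exposures of cells grown in 96-well plates, with endpoints linearly interpolated between the two concentrations bracketing the appropriate inhibition level. GI50 is the concentration that inhibits growth by half.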 Certain results were filed several times, with different values. They are shown here; other results are not. The source may hold further records. Records of one sample usually come from different ranges of test concentrations, not given here; a value can be the end of its range.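 TGI is the concentration that stops growth completely.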

Key:
Assay in all cases: NCI tumour cell line growth inhibition, 48 h
SN12C renal = test system: SN12C renal
SK-MEL-28 melanoma = test system: SK-MEL-28 melanoma
UACC-62 melanoma = test system: UACC-62 melanoma
U251 CNS = test system: U251 CNS
OVCAR-4 ovarian = test system: OVCAR-4 ovarian
NCI-H226 lung = test system: NCI-H226 lung
HCC-2998 colon = test system: HCC-2998 colon
TK-10 renal = test system: TK-10 renal
RXF 393 renal = test system: RXF 393 renal
HCT-116 colon = test system: HCT-116 colon
SNB-75 CNS = test system: SNB-75 CNS
IGROV1 ovarian = test system: IGROV1 ovarian
M14 melanoma = test system: M14 melanoma
786-0 renal = test system: 786-0 renal
SF-268 CNS = test system: SF-268 CNS
OVCAR-8 ovarian = test system: OVCAR-8 ovarian
OVCAR-3 ovarian = test system: OVCAR-3 ovarian
MALME-3M melanoma = test system: MALME-3M melanoma
CCRF-CEM leukemia = test system: CCRF-CEM leukemia
HOP-62 NSCLC = test system: HOP-62 NSCLC
COLO 205 colon = test system: COLO 205 colon
NCI-H460 lung = test system: NCI-H460 lung
SR leukemia = test system: SR leukemia
RPMI-8226 leukemia = test system: RPMI-8226 leukemia
HL-60(TB) leukemia = test system: HL-60(TB) leukemia
SF-539 CNS = test system: SF-539 CNS
SF-295 CNS = test system: SF-295 CNS
SK-MEL-5 melanoma = test system: SK-MEL-5 melanoma
MOLT-4 leukemia = test system: MOLT-4 leukemia

SMILES: COc1cccc2c1C(=O)c1c(O)c3c(c(O)c1C2=O)C[C@@](O)(C(=O)CO)CC3OC1CC(N)C(OC2CCCCO2)C(C)O1 (stereo partly specified)
- TGI (SN12C renal): 146 nM and 15.2 µM
- TGI (SK-MEL-28 melanoma): 312 nM and 6.6 µM
- TGI (UACC-62 melanoma): 134 nM and 8.34 µM
- TGI (U251 CNS): 1.04 µM and 50 µM
- TGI (OVCAR-4 ovarian): 279 nM and 10.7 µM
- GI50 (NCI-H226 lung): 15.2 nM and 687 nM
- TGI (NCI-H226 lung): 78.8 nM and 2.37 µM
- TGI (HCC-2998 colon): 466 nM and 24.7 µM
- TGI (TK-10 renal): 816 nM and 12.1 µM
- TGI (RXF 393 renal): 276 nM and 5.87 µM
- GI50 (HCT-116 colon): 17 nM and 246 nM
- TGI (SNB-75 CNS): 93 nM and 2.35 µM
- TGI (IGROV1 ovarian): 375 nM and 14.3 µM
- TGI (M14 melanoma): 225 nM and 4.96 µM
- TGI (786-0 renal): 138 nM and 13.4 µM
- TGI (SF-268 CNS): 222 nM and 4.51 µM
- TGI (OVCAR-8 ovarian): 641 nM and 8.58 µM
- TGI (OVCAR-3 ovarian): 464 nM and 13.8 µM
- TGI (MALME-3M melanoma): 151 nM and 2 µM
- TGI (CCRF-CEM leukemia): 65.2 nM and 2.59 µM
- TGI (HOP-62 NSCLC): 41.1 nM and 3.18 µM
- TGI (COLO 205 colon): 211 nM and 6.15 µM
- GI50 (NCI-H460 lung): < 1 nM and 36.1 nM
- TGI (SR leukemia): 1.98 nM and 2.32 µM
- TGI (RPMI-8226 leukemia): 63.5 nM and 10.6 µM
- TGI (HL-60(TB) leukemia): 9.51 nM and 3.75 µM
- TGI (SF-539 CNS): 32 nM and 1.76 µM

SMILES: CC[C@H](C)[C@@H]([C@@H](CC(=O)N1CCC[C@H]1[C@H](OC)[C@@H](C)C(=O)NCCc1ccccc1)OC)N(C)C(=O)C(NC(=O)[C@H](C(C)C)N(C)C)C(C)C (stereo partly specified)
- TGI (SF-295 CNS): 1.52 nM and 1.2 µM
- TGI (CCRF-CEM leukemia): 2.1 nM and > 10 µM
- TGI (SK-MEL-5 melanoma): 0.384 nM and 3.3 µM
- TGI (NCI-H460 lung): 2.23 nM and > 10 µM
- TGI (SR leukemia): 1.12 nM and > 10 µM
- TGI (MOLT-4 leukemia): 5.33 nM and > 10 µM
- TGI (RPMI-8226 leukemia): 3.04 nM and 8.51 µM
- TGI (HL-60(TB) leukemia): 0.448 nM and > 10 µM
- TGI (SF-539 CNS): 1.96 nM and > 10 µM
